Source: paper PMC9911399, “Two distinct binding modes provide the RNA-binding protein RbFox with extraordinary sequence specificity”
Residue numbers refer to the chain shown, from its start. The list shows a part of the results.

T1: RBFOX1 RRM (Homo sapiens, UniProt Q9NWB1 109-208)
T1 sequence: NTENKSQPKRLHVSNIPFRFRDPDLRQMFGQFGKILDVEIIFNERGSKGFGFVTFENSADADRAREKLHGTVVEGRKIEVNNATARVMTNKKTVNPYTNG

B1: AACCAAA (DNA:RNA)
RNA: GGGAGACCGGAAUUCAGAUUGUCCAACCAAAUUAAAUCCCGUCGUAGCCACCA
DNA 1: CAATCTGAATTCCGGTCTCCC
DNA 2: TGGTGGCTACGACGGGATT
B2: GAUAGCC (DNA:RNA)
RNA: B1 RNA with A25G, C27U, C28A, A29G, A30C, A31C
DNA 1: CAATCTGAATTCCGGTCTCCC
DNA 2: TGGTGGCTACGACGGGATT
B3: AAAGUCU (DNA:RNA)
RNA: B1 RNA with C27A, C28G, A29U, A30C, A31U
DNA 1: CAATCTGAATTCCGGTCTCCC
DNA 2: TGGTGGCTACGACGGGATT
B4: ACGGUGU (DNA:RNA)
RNA: B1 RNA with A26C, C27G, C28G, A29U, A30G, A31U
DNA 1: CAATCTGAATTCCGGTCTCCC
DNA 2: TGGTGGCTACGACGGGATT
B5: UGAGAUU (DNA:RNA)
RNA: B1 RNA with A25U, A26G, C27A, C28G, A30U, A31U
DNA 1: CAATCTGAATTCCGGTCTCCC
DNA 2: TGGTGGCTACGACGGGATT
B6: GUGCGCC (DNA:RNA)
RNA: B1 RNA with A25G, A26U, C27G, A29G, A30C, A31C
DNA 1: CAATCTGAATTCCGGTCTCCC
DNA 2: TGGTGGCTACGACGGGATT
B7: UAGAUAU (DNA:RNA)
RNA: B1 RNA with A25U, C27G, C28A, A29U, A31U
DNA 1: CAATCTGAATTCCGGTCTCCC
DNA 2: TGGTGGCTACGACGGGATT
B8: CGAGACC (DNA:RNA)
RNA: B1 RNA with A25C, A26G, C27A, C28G, A30C, A31C
DNA 1: CAATCTGAATTCCGGTCTCCC
DNA 2: TGGTGGCTACGACGGGATT
B9: CUCCAAU (DNA:RNA)
RNA: B1 RNA with A25C, A26U, A31U
DNA 1: CAATCTGAATTCCGGTCTCCC
DNA 2: TGGTGGCTACGACGGGATT
B10: CGUGACU (DNA:RNA)
RNA: B1 RNA with A25C, A26G, C27U, C28G, A30C, A31U
DNA 1: CAATCTGAATTCCGGTCTCCC
DNA 2: TGGTGGCTACGACGGGATT
B11: UUCCUUC (DNA:RNA)
RNA: B1 RNA with A25U, A26U, A29U, A30U, A31C
DNA 1: CAATCTGAATTCCGGTCTCCC
DNA 2: TGGTGGCTACGACGGGATT
B12: GAUGGCG (DNA:RNA)
RNA: B1 RNA with A25G, C27U, C28G, A29G, A30C, A31G
DNA 1: CAATCTGAATTCCGGTCTCCC
DNA 2: TGGTGGCTACGACGGGATT
B13: CGGAAAC (DNA:RNA)
RNA: B1 RNA with A25C, A26G, C27G, C28A, A31C
DNA 1: CAATCTGAATTCCGGTCTCCC
DNA 2: TGGTGGCTACGACGGGATT
B14: GUGAGUA (DNA:RNA)
RNA: B1 RNA with A25G, A26U, C27G, C28A, A29G, A30U
DNA 1: CAATCTGAATTCCGGTCTCCC
DNA 2: TGGTGGCTACGACGGGATT
B15: CUUUGUC (DNA:RNA)
RNA: GGGAGACCGGAAUUCAGAUUGUCCCUUUGUCUUAAAUCCCGUCGUAGCCACCA
DNA 1: CAATCTGAATTCCGGTCTCCC
DNA 2: TGGTGGCTACGACGGGATT
B16: AUCCACG (DNA:RNA)
RNA: B1 RNA with A26U, A30C, A31G
DNA 1: CAATCTGAATTCCGGTCTCCC
DNA 2: TGGTGGCTACGACGGGATT
B17: AUAGUCU (DNA:RNA)
RNA: B1 RNA with A26U, C27A, C28G, A29U, A30C, A31U
DNA 1: CAATCTGAATTCCGGTCTCCC
DNA 2: TGGTGGCTACGACGGGATT
B18: CGGCUGU (DNA:RNA)
RNA: B1 RNA with A25C, A26G, C27G, A29U, A30G, A31U
DNA 1: CAATCTGAATTCCGGTCTCCC
DNA 2: TGGTGGCTACGACGGGATT
B19: UCUGUGC (DNA:RNA)
RNA: B15 RNA with C25U, U26C, U28G, G29U, U30G
DNA 1: CAATCTGAATTCCGGTCTCCC
DNA 2: TGGTGGCTACGACGGGATT
B20: AAACGAA (DNA:RNA)
RNA: B1 RNA with C27A, A29G
DNA 1: CAATCTGAATTCCGGTCTCCC
DNA 2: TGGTGGCTACGACGGGATT
B21: ACACGGC (DNA:RNA)
RNA: B1 RNA with A26C, C27A, A29G, A30G, A31C
DNA 1: CAATCTGAATTCCGGTCTCCC
DNA 2: TGGTGGCTACGACGGGATT
B22: CUGCAGU (DNA:RNA)
RNA: B1 RNA with A25C, A26U, C27G, A30G, A31U
DNA 1: CAATCTGAATTCCGGTCTCCC
DNA 2: TGGTGGCTACGACGGGATT
B23: GAGUGUG (DNA:RNA)
RNA: B15 RNA with C25G, U26A, U27G, C31G
DNA 1: CAATCTGAATTCCGGTCTCCC
DNA 2: TGGTGGCTACGACGGGATT
B24: UACGUCC (DNA:RNA)
RNA: B1 RNA with A25U, C28G, A29U, A30C, A31C
DNA 1: CAATCTGAATTCCGGTCTCCC
DNA 2: TGGTGGCTACGACGGGATT
B25: UAAAAGC (DNA:RNA)
RNA: B1 RNA with A25U, C27A, C28A, A30G, A31C
DNA 1: CAATCTGAATTCCGGTCTCCC
DNA 2: TGGTGGCTACGACGGGATT
B26: CCAUACG (DNA:RNA)
RNA: B15 RNA with U26C, U27A, G29A, U30C, C31G
DNA 1: CAATCTGAATTCCGGTCTCCC
DNA 2: TGGTGGCTACGACGGGATT
B27: ACCAUAC (DNA:RNA)
RNA: B1 RNA with A26C, C28A, A29U, A31C
DNA 1: CAATCTGAATTCCGGTCTCCC
DNA 2: TGGTGGCTACGACGGGATT
B28: AGGAGGC (DNA:RNA)
RNA: B15 RNA with C25A, U26G, U27G, U28A, U30G
DNA 1: CAATCTGAATTCCGGTCTCCC
DNA 2: TGGTGGCTACGACGGGATT
B29: GUCAUUC (DNA:RNA)
RNA: B15 RNA with C25G, U27C, U28A, G29U
DNA 1: CAATCTGAATTCCGGTCTCCC
DNA 2: TGGTGGCTACGACGGGATT
B30: GGGUUGG (DNA:RNA)
RNA: B15 RNA with C25G, U26G, U27G, G29U, U30G, C31G
DNA 1: CAATCTGAATTCCGGTCTCCC
DNA 2: TGGTGGCTACGACGGGATT
B31: CUGGUUC (DNA:RNA)
RNA: B15 RNA with U27G, U28G, G29U
DNA 1: CAATCTGAATTCCGGTCTCCC
DNA 2: TGGTGGCTACGACGGGATT

Each binder was assayed against T1, RBFOX1 RRM (assay: EMSA; HiTS-Eq, 1 nM pool, 10 min; buffer printed only for the single-RNA assays: 10 mM Tris pH 7.5, 150 mM NaCl, 3.4 mM EDTA, 0.001% NP-40, 30 C). Conditions: tags: His6 N-terminal (pET28a); label: 5' 32P.
Outline: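 Purified RbFox RRM, wild type or mutant, was incubated for 10 min in 50 µL with 1 nM of a 5′-radiolabelled RNA pool carrying 7 randomized nucleotides, whose flanks were annealed to DNA oligonucleotides, over a series of increasing protein concentrations. Unbound RNA was resolved on 8% native PAGE, cut out, reverse-transcribed, barcoded by PCR and sequenced on an Illumina HiSeq 2500. Relative association constants were derived from changes in read counts for each RNA species versus the control reaction and normalised to the cognate motif.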
B1 was tested, and the binding signal was 0.000547 KA relative to UGCAUGU.
B2 was tested, and the binding signal was 0.00944 KA relative to UGCAUGU.
In the case of B3, the binding signal is reported as 0.00793 KA relative to UGCAUGU.
B4 was tested, and the binding signal was 0.0173 KA relative to UGCAUGU.
In the case of B5, the binding signal is reported as 0.0198 KA relative to UGCAUGU.
B6 was tested, and the binding signal was 0.0184 KA relative to UGCAUGU.
With B7 the binding signal was 0.00788 KA relative to UGCAUGU.
In the case of B8, the binding signal is reported as 0.00836 KA relative to UGCAUGU.
For B9, the binding signal was 0.00173 KA relative to UGCAUGU.
For B10, the binding signal was 0.0122 KA relative to UGCAUGU.
B11 was tested, and the binding signal was 0.0078 KA relative to UGCAUGU.
B12 was tested, and the binding signal was 0.027 KA relative to UGCAUGU.
For B13, the binding signal was 0.0206 KA relative to UGCAUGU.
With B14 the binding signal was 0.0113 KA relative to UGCAUGU.
For B15, the binding signal was 0.0202 KA relative to UGCAUGU.
In the case of B16, the binding signal is reported as 0.0022 KA relative to UGCAUGU.
For B17, the binding signal was 0.00479 KA relative to UGCAUGU.
In the case of B18, the binding signal is reported as 0.0179 KA relative to UGCAUGU.
In the case of B19, the binding signal is reported as 0.0224 KA relative to UGCAUGU.
In the case of B20, the binding signal is reported as 0.00334 KA relative to UGCAUGU.
In the case of B21, the binding signal is reported as 0.00691 KA relative to UGCAUGU.
In the case of B22, the binding signal is reported as 0.0173 KA relative to UGCAUGU.
B23 was tested, and the binding signal was 0.0206 KA relative to UGCAUGU.
With B24 the binding signal was 0.00511 KA relative to UGCAUGU.
For B25, the binding signal was 0.004 KA relative to UGCAUGU.
B26 was tested, and the binding signal was 0.00177 KA relative to UGCAUGU.
B27 was tested, and the binding signal was 0.000123 KA relative to UGCAUGU.
B28 was tested, and the binding signal was 0.0129 KA relative to UGCAUGU.
For B29, the binding signal was 0.00982 KA relative to UGCAUGU.
With B30 the binding signal was 0.0265 KA relative to UGCAUGU.
With B31 the binding signal was 0.0321 KA relative to UGCAUGU.
